From publication PMC4336329 (PLoS ONE, 2015)
About 2,200 (0.71%) of roughly 310,000 compounds showed an effect of 50% or more. The effect is printed as a negative number. The list shows a part of the results.

What follows are compounds tested against human ether-à-go-go-related gene (hERG) potassium channel (human, UniProt Q12809) (assay: primary screen, population patch clamp on CHO cells stably expressing hERG).
Sequence of human ether-à-go-go-related gene (hERG) potassium channel (Q12809 whole entry, looked up): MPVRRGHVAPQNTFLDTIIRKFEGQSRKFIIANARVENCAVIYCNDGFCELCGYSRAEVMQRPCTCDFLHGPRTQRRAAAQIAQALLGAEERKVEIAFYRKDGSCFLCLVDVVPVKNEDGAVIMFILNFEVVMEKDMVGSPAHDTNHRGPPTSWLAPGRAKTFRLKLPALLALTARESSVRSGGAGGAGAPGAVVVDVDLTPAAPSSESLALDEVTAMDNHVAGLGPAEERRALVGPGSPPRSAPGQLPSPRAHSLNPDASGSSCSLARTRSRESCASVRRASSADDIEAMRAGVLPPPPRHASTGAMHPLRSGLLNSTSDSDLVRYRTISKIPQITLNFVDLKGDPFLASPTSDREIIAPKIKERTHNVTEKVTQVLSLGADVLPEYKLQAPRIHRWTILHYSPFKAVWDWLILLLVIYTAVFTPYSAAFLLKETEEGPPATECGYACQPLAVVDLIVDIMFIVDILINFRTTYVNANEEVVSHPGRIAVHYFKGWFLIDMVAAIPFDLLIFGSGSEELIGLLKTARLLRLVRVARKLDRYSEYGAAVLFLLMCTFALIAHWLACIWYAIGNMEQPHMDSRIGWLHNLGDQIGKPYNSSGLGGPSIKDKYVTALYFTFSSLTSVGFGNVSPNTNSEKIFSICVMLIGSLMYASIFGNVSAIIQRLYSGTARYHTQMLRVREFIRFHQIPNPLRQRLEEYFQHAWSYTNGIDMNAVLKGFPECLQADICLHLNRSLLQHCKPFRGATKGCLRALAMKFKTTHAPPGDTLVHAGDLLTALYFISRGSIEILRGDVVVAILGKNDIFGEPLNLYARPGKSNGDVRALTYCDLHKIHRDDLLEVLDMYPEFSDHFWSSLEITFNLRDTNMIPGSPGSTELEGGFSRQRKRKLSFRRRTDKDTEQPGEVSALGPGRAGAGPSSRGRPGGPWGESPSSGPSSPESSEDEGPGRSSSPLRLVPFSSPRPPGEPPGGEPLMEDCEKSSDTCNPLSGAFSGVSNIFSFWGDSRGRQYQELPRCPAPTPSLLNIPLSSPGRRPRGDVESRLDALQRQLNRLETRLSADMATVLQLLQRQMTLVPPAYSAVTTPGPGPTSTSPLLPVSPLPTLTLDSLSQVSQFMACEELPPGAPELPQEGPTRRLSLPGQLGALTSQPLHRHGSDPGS

Row | Structure (SMILES) | hERG current change (%, negative = inhibition) at 1uM
1 | COc1cc(/C=C/C(=O)O)ccc1O | -2.14%
2 | COc1ccccc1CNC(=O)C1CCCN(S(=O)(=O)c2cccs2)C1 (stereo not drawn) | 5.07%
3 | COC(=O)C1C(=O)/C(=C(/C)N2CCCC2)C(=O)CC1(C)C (stereo not drawn) | 2.05%
4 | COc1ccc(Cl)cc1NC(=O)CN(C)C(=O)c1sccc1-c1ccccc1 | 12.8%
5 | COc1ccc(OC)c2[nH]c(=O)c(CCNS(=O)(=O)c3ccccc3)cc12 | 13%
6 | C(=N\n1cnnc1)/c1ccc2ncccc2c1 | -6.72%
7 | CCOc1ccc(C(=O)CCC(=O)NNC(=O)c2ccccc2O)cc1 | 11.6%
8 | CN(C)S(=O)(=O)N1CCc2ccccc2C1 | 7.54%
9 | COc1ccc(NS(=O)(=O)c2ccc(-c3coc(C)n3)cc2)c(OC)c1 | 18%
10 | CCOC(=O)C1=C(C)N(CCCCCC(=O)O)C(=O)NC1c1ccccc1OC(=O)c1cccs1 (stereo not drawn) | -43.3%
11 | COc1ccc2ccccc2c1/C=N/NC(=O)c1nnn(-c2nonc2N)c1C(C)C | 9.08%
12 | O=C1CCCC/C1=N\Nc1ccc(OCc2ccccc2)cc1 | 7.2%
13 | C=C1C(=O)O[C@H]2C1CC[C@@](C)(O)C13C=CC(C)(C21)C1(C3)C(=O)O[C@@H]2C3C(C)=CCC3[C@](C)(O)C[C@H](OC(C)=O)C21 (stereo partly drawn) | 2.12%
14 | NC(=O)c1ccsc1NC(=O)C1CCN(S(=O)(=O)c2cccs2)CC1 | 4.15%
15 | C=CCN=Cc1c(C)[nH]n(-c2ccccc2)c1=O | 11.2%
16 | CCOC(=O)c1ncn2c1C(=O)OC2(C)C | 8.12%
17 | COc1cccc(OC)c1C(=O)OCC(=O)NCC(C)C | 10.6%
18 | Cc1ccc(SCC(=O)NCC(C)C)cc1 | 2.32%
19 | O=C(/C=C/c1ccc([N+](=O)[O-])cc1)N1CCN(Cc2ccccc2)CC1 | -63.8%
20 | CC1(C)C2CCC1(CS(=O)(=O)NC(CC(=O)O)c1cccc(Br)c1)C(=O)C2 (stereo not drawn) | 15.5%
21 | CCCCCCCCNC(=O)/C(C#N)=C/c1ccccc1[N+](=O)[O-] | 6.62%
22 | CCOC(=O)C1=C(O)CSC1=Nc1cccc2ccccc12 | 12.3%

Row | Structure (SMILES) | hERG current change (%, negative = inhibition) at 1uM
23 | Cc1c(Cl)c([N+](=O)[O-])nn1CC(=O)N1CCCC1 | 7.88%
24 | O=C(c1cccc(Cl)c1)N1CCN(Cc2ccccc2)CC1 | 2.47%
25 | CC(Sc1ccccc1)C(=O)Nc1cccc(N(C)S(C)(=O)=O)c1 (stereo not drawn) | 12.5%
26 | CCCc1ccc(C(C)NC(=S)NCc2ccc(F)cc2)cc1 (stereo not drawn) | 10.8%
27 | CSCCC(NC(=O)COc1ccccc1)C(=O)OCCOc1ccc(F)cc1 (stereo not drawn) | 17.6%
28 | Cc1ccc(-n2ncc3c2CC(C)(C)CC3NC(=O)CCc2cccnc2)cc1 (stereo not drawn) | -26%
29 | O=C1c2ccccc2C(=O)N1c1ccc(Br)c2cccnc12 | 10%
30 | CCSc1nc2c(c(=O)[nH]1)C(c1ccncc1)C(C(=O)OC(C)C)=C(C)N2 (stereo not drawn) | 5.85%
31 | Cc1ccc2[nH]cc(CCNC(=O)CN3C(=O)c4ccccc4C3=O)c2c1 | 0.732%
32 | O=C(O)c1oc2ccc(Br)cc2c1-n1cccc1 | 8.85%
33 | Clc1cccc(C2CCN(Cc3nc(COc4ccccc4)no3)C2)c1 (stereo not drawn) | -9.89%
34 | CCc1ccc(Oc2cc(C)nc(N)n2)cc1 | 11.3%
35 | CCOC(=O)N1CCN(C(=O)c2cc(COc3cccc(C(F)(F)F)c3)on2)CC1 | -9.81%
36 | C/C(=N\NC(=O)c1nn(C)cc1Br)c1ccncc1 | 2.29%
37 | CN(C)S(=O)(=O)c1cccc(COC(=O)Cc2c(F)cccc2Cl)c1 | 14.2%
38 | Cc1cc(C)cc(NC(=O)C2(c3ccccc3)CC2(Cl)Cl)c1 (stereo not drawn) | -2.44%
39 | N/C(=N\OC(=O)CCC1CCCCC1)c1ccc([N+](=O)[O-])cc1 | -8.83%
40 | CCCCn1c(N)c(N(CC)C(=O)c2ccc3c(c2)S(=O)(=O)c2ccccc2C3=O)c(=O)[nH]c1=O | 6.32%
41 | Cc1ccc(C(=O)c2c3ccc(C(F)(F)F)cc3nn2CCC(N)=O)cc1 | 7.33%
42 | CCn1c(CSc2nnc(-c3ccncc3)n2C)nc2cc(C(=O)O)ccc21 | 13%
43 | CC(C)CN(C(=O)COC(=O)Cc1c[nH]c2ccccc12)C1CCS(=O)(=O)C1 (stereo not drawn) | 9.7%
44 | O=[N+]([O-])c1ccc(N2CCCC2)cc1N1CCCC1 | 6.74%

Row | Structure (SMILES) | hERG current change (%, negative = inhibition) at 1uM
45 | COc1ccc2nc3c(nc2c1)CCCC3 | 8.49%
46 | CC(=O)Cc1cc(O)c2ccccc2c1OC(=O)c1ccc(Br)cc1 | -1.12%
47 | CCOc1ccc(C(=O)N(CN2CCCC2=O)c2ccccc2)cc1 | 12.5%
48 | COc1ccc(NC2=C(C(C)=O)C(c3ccc(OC)cc3)C(C(C)=O)C(C)(O)C2)cc1 (stereo not drawn) | 15.4%
49 | Cc1cc2oc(=O)cc(CN3CCN(S(=O)(=O)c4cccs4)CC3)c2cc1C | -0.116%
50 | Cc1[nH]c(C(=O)N/N=C/c2ccc(C(=O)O)cc2)c(C)c1C(=O)N/N=C/c1ccc(C(=O)O)cc1 | -3.86%
51 | Cc1ccc(O)c(C(=O)c2cnn(C(=O)COc3ccc(Cl)cc3)c2)c1 | 8.86%
52 | CCOC(=O)c1cc(NC(=O)/C=C\C(=O)O)ccc1Cl | 8.58%
53 | Cc1cc(C)c(S(=O)(=O)N2CCOC2CNC(=O)C(=O)NCCCn2ccnc2)c(C)c1 (stereo not drawn) | 5.34%
54 | Cc1cccc(N(C(=O)CNC(=O)c2ccco2)C(C(=O)NC2CCCC2)c2cccnc2)c1 (stereo not drawn) | 9.55%
55 | CC(=O)c1cc(C#N)c(N2CCN(c3ccccc3)CC2)nc1C | 11.8%
56 | C/C(CC(=O)Nc1cccc(Cl)c1Cl)=N\NC(=O)C(=O)N1CCCC1 | 13%
57 | O=C(NC1CC2CCC1C2)c1ccco1 (stereo not drawn) | 2.62%
58 | O=C(CNc1cccc(C(F)(F)F)c1)N/N=C/C1CCCCC1 | 13.5%
59 | Cc1cccc(C)c1OCCNC(=O)C(=O)NCc1ccco1 | 12.6%
60 | Cc1c(N=Cc2c(O)n(CCc3ccc(F)cc3)c(=O)[nH]c2=O)c(=O)n(-c2ccccc2)n1C | -25.2%
61 | N/C(=N\OC(=O)C(c1ccccc1)c1ccccc1)c1ccncc1 | 3.49%
62 | N#C/C(=C\c1cccc([N+](=O)[O-])c1)C(=O)NCC1CCCO1 (stereo not drawn) | 4.26%
63 | CCc1ccc(NC2CC(=O)N(CCc3ccc(OC)c(OC)c3)C2=O)cc1 (stereo not drawn) | -9.49%
64 | COc1ccc(/C=C(/NC(=O)c2ccccc2)C(=O)N/N=C/c2ccncc2)cc1 | 11.6%
65 | O=C(Nc1ccc(Br)cc1)C1CC(O)CN1C(=O)OCc1ccccc1 (stereo not drawn) | 6.24%
66 | Cc1ccc(S(=O)(=O)N2CCN(C(=O)c3cc(=O)[nH]c4ccccc34)CC2)c(C)c1 | -2.77%

Row | Structure (SMILES) | hERG current change (%, negative = inhibition) at 1uM
67 | O=C(CCc1nc2ccccc2c(=O)[nH]1)OCc1ccc(Cl)cc1Cl | 6.48%
68 | COc1cccc(NC(=O)COc2ccc(S(=O)(=O)NC(C)C)cc2)c1 | 9.42%
69 | CNC(=O)C1CCN(S(=O)(=O)c2c(C)noc2/C=C/c2ccccc2F)CC1 | 12.9%
70 | FC(F)Oc1ccc(C2N=C(c3ccccc3)NO2)cc1 (stereo not drawn) | 12.2%
71 | COc1ccc(N(C)S(=O)(=O)c2cccc(C(=O)Nc3nnc(C)s3)c2)cc1 | 10.2%
72 | Brc1ccc2c(c1)OCCOCCOCCOCCOCCOCCO2 | -60%
73 | CC1CC(C)CN(C(=O)c2nn(C)c3c2CS(=O)(=O)c2ccccc2-3)C1 (stereo not drawn) | 2.63%
74 | O=C(Cn1c(=O)sc2ccccc21)NCCOc1ccccc1F | 3%
75 | Cc1ccc(-c2n[nH]c(=S)n2/N=C/c2cccn2C)cc1 | 18.7%
76 | COc1ccccc1CNC(=O)c1cc(=O)c2ccccc2o1 | 8.85%
77 | O=c1cnc2ccccc2n1Cc1ccccc1C(F)(F)F | 22.7%
78 | Cc1cc(C2=NNC(=NC3CCCCC3)SC2)c(C)n1-c1c(C)n(C)n(-c2ccccc2)c1=O | 14.6%
79 | Nc1c(C(=O)NC2CCCC2)c2nc3ccccc3nc2n1/N=C/c1cccnc1 | 4.84%
80 | CC/C(=N\N=C1\SC(C)C(=O)N1Cc1ccco1)c1ccccc1 (stereo not drawn) | 8.78%
81 | Cc1cc(C(F)(F)F)n(-c2nc(C(=O)NNS(=O)(=O)c3ccccc3[N+](=O)[O-])cs2)n1 | 8.87%
82 | c1csc(-c2nc3c4ccccc4c4ccccc4c3[nH]2)c1 | 15.8%
83 | COc1ccccc1/C=C1\N=C(C(C)(C)C)OC1=O | 11.9%
84 | Cc1nc2sc(C(c3ccccc3)N3CCN(C)CC3)c(O)n2n1 (stereo not drawn) | 4.53%
85 | CC(C)(C)c1ccc(C(=O)NNc2cc(N3CCOCC3)nc(N3CCOCC3)n2)cc1 | -0.236%
86 | O=C(/C=C/c1ccccc1Cl)NCc1ccco1 | -10.3%
87 | Cc1cccc(C)c1-n1c(SCC(=O)Nc2ccc(C(=O)O)cc2)nnc1-c1cccc(S(=O)(=O)N(C)C)c1 | 7.98%
